From the supplement of paper PMC4604168 (melanoma cell lines) come the findings set out here.

The structures appear in SMILES notation. Some of the results follow. Repeats are few or missing, and single values can be far off.
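Also: cells treated in 1,536-well plates, then fixed and DAPI-stained, with nuclei counted from automated high-throughput microscope images.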

For this assay, the system named is A375. The assay is described as follows: cell count relative to DMSO control; melanoma cells; higher = more viable cells. As to conditions: library dose: standard library concentration; 72 h.
With `CCc1ccc(CCOc2ccc(CC3SC(=O)NC3=O)cc2)nc1` (centres undefined) [pioglitazone] + COC(=O)c1sccc1S(=O)(=O)Nc1ccc(Nc2ccccc2)cc1OC [GSK0660] (first compound 10 µM, partner dose 5 µM), the cell count turned out to be 125%.

The compound `CCc1ccc(CCOc2ccc(CC3SC(=O)NC3=O)cc2)nc1` (centres undefined) [pioglitazone] + CC(C)CCN1c2nc(Nc3cc(F)c(O)c(F)c3)ncc2N(C)C(=O)C1C [BID1870] (first compound 10 µM, partner dose 1 µM) had a cell count of 92.5%.

`CN(NC(=O)CC(=O)NN(C)C(=S)c1ccccc1)C(=S)c1ccccc1` + O=S(=O)(c1ccccc1)N(CC(F)(F)F)c1ccc(C(O)(C(F)(F)F)C(F)(F)F)cc1 [T0901317] (first compound 0.03 µM, partner dose 7 µM): the cell count amounted to 95%.

With `CN(NC(=O)CC(=O)NN(C)C(=S)c1ccccc1)C(=S)c1ccccc1` + O=C(O)C(=O)Nc1sc2c(c1C(=O)O)CCNC2 [TCS401] (first compound 0.03 µM, partner dose 8.33333 µM), the cell count was 184%.

Turning to `NC(=O)c1ccc(N(C(N)=O)c2c(F)cccc2F)nc1-c1ccc(F)cc1F` + CCN(CC)CCCCNc1ncc2cc(-c3cc(OC)cc(OC)c3)c(NC(=O)NC(C)(C)C)nc2n1 [PD173074] (first compound 2 µM, partner dose 0.5 µM), the cell count amounted to 136%.

With `CCc1ccc(CCOc2ccc(CC3SC(=O)NC3=O)cc2)nc1` (centres undefined) [pioglitazone] + Oc1nc(-c2ccc(C(F)(F)F)cc2)nc2c1CSCC2 [XAV939] (first compound 10 µM, partner dose 10 µM), the cell count worked out at 98.7%.

Regarding `Cc1ccc(NC(=O)c2cccc(N(C)C)c2)cc1NC(=O)c1ccc(O)cc1` + O=C(O)C(=O)Nc1sc2c(c1C(=O)O)CCNC2 [TCS401] (first compound 10 µM, partner dose 8.33333 µM), the cell count came out at 161%.

The compound `NC(=O)c1ccc(N(C(N)=O)c2c(F)cccc2F)nc1-c1ccc(F)cc1F` + c1cc(-c2cnn3cc(-c4ccc(OCCN5CCCCC5)cc4)cnc23)ccn1 [Dorsomorphin] (first compound 2 µM, partner dose 2 µM) returned a cell count of 120%.

On to `CC(C)(C)c1cnc(CSc2cnc(NC(=O)C3CCNCC3)s2)o1` + CCN(CC)CCCCNc1ncc2cc(-c3cc(OC)cc(OC)c3)c(NC(=O)NC(C)(C)C)nc2n1 [PD173074] (first compound 0.05 µM, partner dose 0.5 µM), for which the cell count came to 94.2%.

`CCCCCCCCc1ccc(CCC(N)(CO)CO)cc1` [fingolimod] + CCc1ccc(CCOc2ccc(CC3SC(=O)NC3=O)cc2)nc1 [pioglitazone] (first compound 10 µM, partner dose 10 µM) displayed a cell count of 32.5%.

In the case of `CCc1ccc(CCOc2ccc(CC3SC(=O)NC3=O)cc2)nc1` (centres undefined) [pioglitazone] + O=C1NC(=O)/C(=C/c2ccc(-c3ccc(F)cc3O)o2)S1 [AS252424] (first compound 10 µM, partner dose 5 µM), the cell count turned out to be 111%.

`CCCCCCCCc1ccc(CCC(N)(CO)CO)cc1` [fingolimod] + CCN(CC)CCCCNc1ncc2cc(-c3cc(OC)cc(OC)c3)c(NC(=O)NC(C)(C)C)nc2n1 [PD173074] (first compound 10 µM, partner dose 0.5 µM) yielded a cell count of 84.3%.

`COc1cc2c(Oc3ccc4[nH]c(C)cc4c3F)ncnc2cc1OCCCN1CCCC1` [cediranib] + CC(C)CCN1c2nc(Nc3cc(F)c(O)c(F)c3)ncc2N(C)C(=O)C1C [BID1870] (first compound 2 µM, partner dose 1 µM) showed a cell count of 114%.

`Cc1ccc(NC(=O)c2cccc(N(C)C)c2)cc1NC(=O)c1ccc(O)cc1` + O=C(Nc1ccccc1)c1cc([N+](=O)[O-])ccc1Cl [GW9662] (first compound 10 µM, partner dose 10 µM) registered a cell count of 115%.

As for `CCCCCCCCc1ccc(CCC(N)(CO)CO)cc1` [fingolimod] + O=S(=O)(c1ccccc1)N(CC(F)(F)F)c1ccc(C(O)(C(F)(F)F)C(F)(F)F)cc1 [T0901317] (first compound 10 µM, partner dose 7 µM), the cell count was determined as 46.9%.

Take `CN(NC(=O)CC(=O)NN(C)C(=S)c1ccccc1)C(=S)c1ccccc1` + CCN(CC)CCCCNc1ncc2cc(-c3cc(OC)cc(OC)c3)c(NC(=O)NC(C)(C)C)nc2n1 [PD173074] (first compound 0.03 µM, partner dose 0.5 µM): the cell count was 101%.

In turn, `Cc1ccc(NC(=O)c2cccc(N(C)C)c2)cc1NC(=O)c1ccc(O)cc1` + CC(C)CCN1c2nc(Nc3cc(F)c(O)c(F)c3)ncc2N(C)C(=O)C1C [BID1870] (first compound 10 µM, partner dose 1 µM) registered a cell count of 95.5%.

`CCCCCCCCc1ccc(CCC(N)(CO)CO)cc1` [fingolimod] + CCCCCCCCCCCC1=C(O)C(=O)C=C(O)C1=O [Embelin] (first compound 10 µM, partner dose 6 µM) yielded a cell count of 76.1%.

In turn, `NC(=O)c1ccc(N(C(N)=O)c2c(F)cccc2F)nc1-c1ccc(F)cc1F` + COc1cc(N2CCC(N3CCN(C)CC3)CC2)ccc1Nc1ncc(Cl)c(Nc2ccccc2S(=O)(=O)C(C)C)n1 [NVP-TAE684] (first compound 2 µM, partner dose 0.4 µM) had a cell count of 74.6%.

The compound `CC(C)(C)c1cnc(CSc2cnc(NC(=O)C3CCNCC3)s2)o1` + COc1cc(N2CCC(N3CCN(C)CC3)CC2)ccc1Nc1ncc(Cl)c(Nc2ccccc2S(=O)(=O)C(C)C)n1 [NVP-TAE684] (first compound 0.05 µM, partner dose 0.4 µM) came in with a cell count of 88%.

`CCCCCCCCc1ccc(CCC(N)(CO)CO)cc1` [fingolimod] + O=C(O)C(=O)Nc1sc2c(c1C(=O)O)CCNC2 [TCS401] (first compound 10 µM, partner dose 8.33333 µM): the cell count was found to be 86.8%.

Take `COc1cc2c(Oc3ccc4[nH]c(C)cc4c3F)ncnc2cc1OCCCN1CCCC1` [cediranib] + Cc1cc([N+](=O)[O-])ccc1NS(=O)(=O)c1cc(Cl)ccc1Cl [FH535] (first compound 2 µM, partner dose 5 µM): the cell count was found to be 83.5%.

Regarding `Cc1ccc(NC(=O)c2cccc(N(C)C)c2)cc1NC(=O)c1ccc(O)cc1` + O=c1cc(-c2cccc3c2Sc2ccccc2S3)oc(N2CCOCC2)c1 [KU55933] (first compound 10 µM, partner dose 5 µM), the cell count was found to be 117%.

The compound `CC(C)(C)c1cnc(CSc2cnc(NC(=O)C3CCNCC3)s2)o1` + CCCCCCCCCCCC1=C(O)C(=O)C=C(O)C1=O [Embelin] (first compound 0.05 µM, partner dose 6 µM) returned a cell count of 88.7%.

With `CC(C)(C)c1cnc(CSc2cnc(NC(=O)C3CCNCC3)s2)o1` + CC(C)CCN1c2nc(Nc3cc(F)c(O)c(F)c3)ncc2N(C)C(=O)C1C [BID1870] (first compound 0.05 µM, partner dose 1 µM), the cell count is 79.9%.

With `NC(=O)c1ccc(N(C(N)=O)c2c(F)cccc2F)nc1-c1ccc(F)cc1F` + Oc1cc(-c2nc(-c3ccccc3)[nH]c2-c2ccncc2)ccc1Cl [L779450] (first compound 2 µM, partner dose 1 µM), the cell count came to 85.6%.

Compound `CN(NC(=O)CC(=O)NN(C)C(=S)c1ccccc1)C(=S)c1ccccc1` + O=c1cc(-c2cccc3c2Sc2ccccc2S3)oc(N2CCOCC2)c1 [KU55933] (first compound 0.03 µM, partner dose 5 µM) had a cell count of 128%.

In the case of `NC(=O)c1ccc(N(C(N)=O)c2c(F)cccc2F)nc1-c1ccc(F)cc1F` + O=S(=O)(c1ccccc1)N(CC(F)(F)F)c1ccc(C(O)(C(F)(F)F)C(F)(F)F)cc1 [T0901317] (first compound 2 µM, partner dose 7 µM), the cell count was found to be 91.1%.

For the compound `Cc1ccc(NC(=O)c2cccc(N(C)C)c2)cc1NC(=O)c1ccc(O)cc1` + COc1ccc2c(c1)CCC1C2CCC2(C)C(NCCCCCCN3C(=O)C=CC3=O)CCC12 [U73122] (first compound 10 µM, partner dose 2 µM), the cell count turned out to be 65.7%.

Compound `CCc1ccc(CCOc2ccc(CC3SC(=O)NC3=O)cc2)nc1` (centres undefined) [pioglitazone] + O=S(=O)(c1ccccc1)N(CC(F)(F)F)c1ccc(C(O)(C(F)(F)F)C(F)(F)F)cc1 [T0901317] (first compound 10 µM, partner dose 7 µM) came in with a cell count of 92.3%.

With `COc1cc2c(Oc3ccc4[nH]c(C)cc4c3F)ncnc2cc1OCCCN1CCCC1` [cediranib] + Oc1cc(-c2nc(-c3ccccc3)[nH]c2-c2ccncc2)ccc1Cl [L779450] (first compound 2 µM, partner dose 1 µM), the cell count stood at 73.9%.

The compound `Cc1ccc(NC(=O)c2cccc(N(C)C)c2)cc1NC(=O)c1ccc(O)cc1` + COc1ccc(COc2ccc(Cc3cnc(N)nc3N)cc2OC)cc1 [GW2580] (first compound 10 µM, partner dose 5 µM) had a cell count of 64.9%.

For `COc1cc2c(Oc3ccc4[nH]c(C)cc4c3F)ncnc2cc1OCCCN1CCCC1` [cediranib] + COc1ccc2c(c1)CCC1C2CCC2(C)C(NCCCCCCN3C(=O)C=CC3=O)CCC12 [U73122] (first compound 2 µM, partner dose 2 µM), the cell count is 91.3%.

In turn, `CC(C)(C)c1cnc(CSc2cnc(NC(=O)C3CCNCC3)s2)o1` + Oc1nc(-c2ccc(C(F)(F)F)cc2)nc2c1CSCC2 [XAV939] (first compound 0.05 µM, partner dose 10 µM) came in with a cell count of 84%.
